Our source for the cell viability values is publication PMC12848717, “Discovery of Encrypted Peptides in a Human Matrix Metallopeptidase” (JACS Au, 2025).

Square brackets hold non-standard residues; d marks the D form. Peptide text beside a SMILES is read from it.

This data set relates to RAW 264.7 murine macrophages. To be noted: 72 h, 100 μM.

With `CC[C@@H](C)[C@@H](NC(=O)[C@@H](CCCNC(=N)N)NC(=O)[C@@H](Cc1ccccc1)NC(=O)[C@H](NC(=O)[C@@H](CC(C)C)NC(=O)[C@@H](Cc1c[nH]cn1)NC(=O)[C@@H](CCCCN)NC(=O)[C@@H](CCCCN)NC(=O)[C@@H](CCCNC(=N)N)NC(=O)[C@@H](Cc1c[nH]c2ccccc12)NC(=O)[C@@H](CCCNC(=N)N)NC(=O)CNC(=O)[C@@H](CC(C)C)NC(=O)[C@@H](CC(C)C)NC(=O)[C@@H](CC(C)C)NC(=O)[C@@H](Cc1ccc(O)cc1)NC(=O)[C@H]1CCCN1)[C@H](C)O)C(=O)N[C@H](CC(C)C)C(=O)N[C@H](CC(N)=O)C(=O)N[C@H](CC(C)C)C(=O)O` [D(P)YLL19] (H-[dP][dY][dL][dL][dL]G[dR][dW][dR][dK][dK][dH][dL][dT][dF][dR][dI][dL][dN][dL]-OH; N-terminus and C-terminus assumed), the cell viability entry is “above 70%”.
